# This is one part of the list.
# How the values were obtained:
# HSkMC = human skeletal muscle cells; test: cytotoxicity call (relative viability < 0.9); conditions: 10 µM
# HepG2 = test: cytotoxicity call (relative viability < 0.9); conditions: 10 µM
# S. aureus RN4220 = test: growth inhibition call (relative growth <= 0.2); conditions: 50 µM
Structure (SMILES),cytotoxicity call (HSkMC),cytotoxicity call (HepG2),growth inhibition call (S. aureus RN4220)
Cc1noc(C)c1NC(=O)Nc1ccc2c(c1)CC(=O)N([C@@H](C)CO)C[C@@H](C)[C@@H](CN(C)Cc1ccc(C(F)(F)F)cc1)O2,inactive,inactive,inactive
C[C@@H]1CN([C@H](C)CO)C(=O)c2c(c3ccccc3n2C)-c2ccccc2CO[C@@H]1CN(C)S(=O)(=O)c1ccc(Cl)cc1,inactive,inactive,inactive
CCCNC(=O)N1C[C@@H](C)[C@@H](OC)CN(C)C(=O)c2ccc(NS(=O)(=O)CC(F)(F)F)cc2OC[C@@H]1C,inactive,inactive,inactive
C[C@H]1CN([C@@H](C)CO)S(=O)(=O)c2ccc(-c3cncnc3)cc2O[C@H]1CN(C)C(=O)C1CCCCC1,inactive,inactive,inactive
C[C@H]1CN([C@@H](C)CO)C(=O)c2cc(C#Cc3ccc(F)cc3)cnc2O[C@@H]1CN(C)CC1CCOCC1,inactive,inactive,inactive
C[C@H]1CN([C@@H](C)CO)C(=O)Cc2cc(NC(=O)Nc3cccc4ccccc34)ccc2O[C@@H]1CN(C)Cc1ccccc1,inactive,inactive,inactive
COc1ccc(S(=O)(=O)N(C)C[C@H]2OCCCC[C@H](C)Oc3ccc(NC(=O)Nc4c(C)noc4C)cc3C(=O)N([C@H](C)CO)C[C@H]2C)cc1,inactive,inactive,inactive
O=C(C[C@H]1C[C@@H]2c3cc(NC(=O)Cc4ccncc4)ccc3O[C@@H]2[C@@H](CO)O1)NCc1ccc2c(c1)OCO2,inactive,inactive,inactive
C[C@@H]1CCCCO[C@H](CN(C)C(=O)Nc2ccc(F)cc2)[C@@H](C)CN([C@@H](C)CO)C(=O)c2cc(NC(=O)c3ccccc3)ccc2O1,inactive,inactive,inactive
CC(=O)N1C[C@@H](NC(=O)c2nccn2C)[C@@H]2OCCC[C@@H]21,inactive,inactive,inactive
Cc1ccc(S(=O)(=O)Nc2cccc3c2O[C@@H](CN(C)S(=O)(=O)c2ccc(F)cc2)[C@@H](C)CN([C@@H](C)CO)C3=O)cc1,inactive,inactive,inactive
CNCC(O)c1cccc(O)c1.Cl (stereo not drawn),inactive,inactive,inactive
C[C@H]1CN([C@@H](C)CO)C(=O)c2cc(C#CCN(C)C)cnc2O[C@@H]1CN(C)Cc1cccc(C(=O)O)c1,inactive,inactive,inactive
C[C@H](CO)N1C[C@H](C)[C@H](CN(C)S(=O)(=O)c2ccc(Cl)cc2)OCc2cn(nn2)CCCC1=O,inactive,inactive,inactive
C[C@H]1CN([C@@H](C)CO)C(=O)c2cc(NC(=O)CCN3CCOCC3)ccc2O[C@H]1CN(C)C(=O)Nc1ccc2c(c1)OCO2,inactive,inactive,inactive
C[C@@H]1CCCCO[C@H](CN(C)Cc2ccccc2)[C@H](C)CN([C@@H](C)CO)C(=O)c2cc(NS(=O)(=O)c3ccc(Cl)cc3)ccc2O1,inactive,active,inactive
C[C@H](CO)N1C[C@H](C)[C@@H](CN(C)C(=O)Nc2ccccc2C(F)(F)F)OCc2ccccc2-c2ccccc2C1=O,inactive,inactive,inactive
Cc1cc([N+](=O)[O-])nn1CC(=O)NC(C)C,inactive,inactive,inactive
CCCC#Cc1cnc2c(c1)C(=O)N([C@H](C)CO)C[C@H](C)[C@H](CN(C)C(=O)c1ccc3c(c1)OCO3)O2,inactive,inactive,inactive
Cc1noc(C)c1NC(=O)N(C)C[C@@H]1Oc2c(NC(=O)c3ccncc3)cccc2C(=O)N([C@@H](C)CO)C[C@H]1C,inactive,inactive,inactive
C[C@@H]1CCCCO[C@H](CN(C)Cc2ccc(C(=O)Nc3ccccc3N)cc2)[C@H](C)CN([C@H](C)CO)C(=O)c2cc(N(C)C)ccc2O1,inactive,inactive,inactive
COc1ccccc1CNC(=O)C[C@H]1CC[C@H]2[C@@H](COC[C@H](O)CN2C(=O)Nc2ccc(F)cc2)O1,inactive,active,inactive
CCCN(C)C[C@@H]1OCCCC[C@H](C)Oc2ccc(NC(=O)CCC(F)(F)F)cc2C(=O)N([C@@H](C)CO)C[C@@H]1C,inactive,inactive,inactive
COc1ccccc1S(=O)(=O)N(C)C[C@H]1OCc2cn(nn2)CCCC(=O)N([C@H](C)CO)C[C@@H]1C,inactive,inactive,inactive
N=C(N=C(N)N)N1N=CC[C@@H]1c1ccccc1,inactive,inactive,inactive
C[C@@H]1CN([C@H](C)CO)C(=O)c2cc(NC(=O)CCC(F)(F)F)ccc2O[C@@H]1CN(C)S(C)(=O)=O,inactive,inactive,inactive

# From the antibiotic and cytotoxicity screens of Wong et al. (2023)
